In PubChem BioAssay AID1645887 (National Center for Advancing Translational Sciences (NCATS), 2021):
Where “and” joins values, the source holds several entries; their conditions need not be identical. Equal entries are not always repeated. Among all 16,000 compounds or so, about 40 (0.2%) were called active. Not shown: some 1% with an inconclusive outcome. Calls come from the whole dose curve; as a rule, active = well fitted activation curve with a large enough effect; inconclusive = small, poorly fitted or top-dose-only effect, or another doubt; inactive = no such curve, though single readings can be large or run the other way. Some of the results follow. The source holds several records for some structures; these can differ, active in one and inactive in another.

The compounds below were run against Rap guanine nucleotide exchange factor 4 (Homo sapiens) (UniProt Q8WZA2) (assay: Validation qHTS for agonist of cAMP-regulated guanine nucleotide exchange factor 4 (EPAC2)). Settings: EPAC2 Rap1B BODIPY-GDP exchange, fluorescence; activation: hits give high values.
Outline: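 Fluorescent exchange assay: 100 nM EPAC2 with 250 nM RAP1B-BODIPY-GDP and 50 uM GDP; compound added, 5 min at room temperature, then read (ex 480/em 540 nm) every 5 min for 30 min. Normalized to 6.5 mM cAMP agonist control.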
% is set by controls: 0 for no effect and ±100 for the full control effect; potency is the fitted concentration of half-maximal effect.
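Throughout, for activation: exchange makes BODIPY-GDP fluorescence drop when released from Rap1B; series mostly up to about 150 µM.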

Sequence of UniProt Q8WZA2 (Q8WZA2 whole entry, looked up): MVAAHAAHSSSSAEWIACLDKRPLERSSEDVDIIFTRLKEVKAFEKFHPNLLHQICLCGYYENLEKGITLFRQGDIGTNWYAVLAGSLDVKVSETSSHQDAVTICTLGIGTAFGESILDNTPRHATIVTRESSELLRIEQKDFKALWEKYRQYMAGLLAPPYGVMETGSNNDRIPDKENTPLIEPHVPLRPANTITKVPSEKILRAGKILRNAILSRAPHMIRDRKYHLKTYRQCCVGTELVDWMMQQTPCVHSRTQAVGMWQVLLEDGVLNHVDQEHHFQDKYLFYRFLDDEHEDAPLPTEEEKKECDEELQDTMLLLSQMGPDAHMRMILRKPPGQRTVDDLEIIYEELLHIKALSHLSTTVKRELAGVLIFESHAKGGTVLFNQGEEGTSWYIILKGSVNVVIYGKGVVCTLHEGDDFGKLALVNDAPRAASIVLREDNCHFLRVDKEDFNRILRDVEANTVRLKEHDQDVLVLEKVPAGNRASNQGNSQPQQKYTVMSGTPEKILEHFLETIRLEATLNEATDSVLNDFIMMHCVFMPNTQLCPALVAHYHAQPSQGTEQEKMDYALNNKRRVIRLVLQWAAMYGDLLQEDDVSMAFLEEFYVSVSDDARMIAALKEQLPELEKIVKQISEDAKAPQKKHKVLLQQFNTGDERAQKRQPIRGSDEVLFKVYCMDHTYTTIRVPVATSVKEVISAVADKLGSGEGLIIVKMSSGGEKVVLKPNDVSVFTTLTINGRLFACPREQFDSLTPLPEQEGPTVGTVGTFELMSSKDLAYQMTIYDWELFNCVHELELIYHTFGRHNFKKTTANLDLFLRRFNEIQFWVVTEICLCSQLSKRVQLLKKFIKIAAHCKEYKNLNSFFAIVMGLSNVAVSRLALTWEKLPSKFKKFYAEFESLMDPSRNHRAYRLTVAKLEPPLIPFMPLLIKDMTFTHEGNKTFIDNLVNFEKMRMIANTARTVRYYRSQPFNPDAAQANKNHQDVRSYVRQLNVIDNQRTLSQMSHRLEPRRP

Row | Compound | activation | Potency
1 | CN[C@@]1(c2ccccc2Cl)CCCCC1=O | inactive: -11.4% | –
2 | Clc1ccc(C2=CCC[C@H]3CC[C@@H]2N3)cn1 | inactive: -9.15% | –
3 | Oc1ccc2c3c1O[C@H]1c4[nH]c5ccccc5c4C[C@]4(O)[C@H](C2)N(CC2CC2)CC[C@@]314 | inactive: -9.97% | –
4 | c1ccc2cc(CC3=NCCN3)ccc2c1 | inactive: -13.8% | –
5 | COP(=S)(OC)Oc1ccc(Sc2ccc(OP(=S)(OC)OC)cc2)cc1 | inactive: 12% | –
6 | CCCCCCC(=O)CCCCCC/C=C/C[C@@H](O)[C@H](O)[C@@](N)(CO)C(=O)O | inactive: -19.6% and inactive: -9.23% | –
7 | CCC(C)C(=O)OC1C(O)C2C(CN3CC(C)CCC3[C@]2(C)O)C2C[C@]34O[C@@]5(O)C(OC(=O)C(C)(O)C(C)O)CCC3(C)C5C(OC(C)=O)C(OC(C)=O)C4[C@@]21O (stereo not given in full) | inactive: -14.2% | –
8 | CC(C)(C)c1cc(O)ccc1O | inactive: -17% | active: 56.2 µM
9 | COC[C@H]1OC(=O)c2coc3c2[C@@]1(C)C1=C(C3=O)[C@H]2CCC(=O)[C@@]2(C)C[C@H]1OC(C)=O | inactive: -5.52% | –
10 | c1ccc(N2CC3(CCNCC3)C2)cc1 | inactive: -8.62% | –
11 | CCOP(=S)(OCC)Oc1nc(Cl)c(Cl)cc1Cl | inactive: 0.282% | –
12 | C=C1C2CC[C@@]3(C)C(c4ccoc4)OC(=O)C[C@@]13OC1CC(=O)C(C)(C)C(C(OC(C)=O)C(=O)OC)[C@@]12C (stereo not given in full) | inactive: -6.87% | –
13 | c1ccc(N2CC[C@@]3(CCCNC3)C2)nc1 | inactive: -5.15% | –
14 | CCCN[C@@H]1CCc2c(OC)cccc2[C@@H]1C | inactive: -6.17% and inactive: 2.28% | –
15 | c1ccc2c(c1)sc1ccccc12 | inactive: 17.5% | –
16 | CC(C)(C)CC(C)(C)c1ccc(O)cc1 | inactive: -64.7% and inactive: -60.4% | –
17 | O=P1(N(CCCl)CCCl)NCCCO1 (stereo not given) | inactive: -6.39% and inactive: 19.5% and inactive: -56.2% | –
18 | CCC1/C=C/C=CCC(C)C(O)[C@@](C)(O)C(=O)C(C)C(O)C(C)C(=O)C(C)C(O)C(C)C=CC(=O)O[C@H]2C(C)C(CC1)O[C@]1(CCC(C)C(CC(C)O)O1)C2C (stereo not given in full) | inactive: -14.3% | –
19 | CCCn1c(C)c(C(=O)c2cccc3ccccc23)c2ccccc21 | inactive: -32.5% | –
20 | CNc1ccc2oc(C[C@@H]3OC4(CC[C@@H]3C)O[C@H]([C@@H](C)C(=O)c3ccc[nH]3)[C@H](C)C[C@H]4C)nc2c1C(=O)O (stereo not given in full) | inactive: -9.5% | –
21 | NC(=O)CS(=O)C(c1ccccc1)c1ccccc1 (stereo not given) | inactive: -47.7% and inactive: -9.21% | –
22 | CN1C(=O)CCS(=O)(=O)C1c1ccc(Cl)cc1 (stereo not given) | inactive: -4.64% [middle of 4 runs] | –
23 | CN(C)[C@@H]1C(=O)C(C(N)=O)=C(O)[C@@]2(O)C(=O)C3=C(O)c4c(O)cccc4[C@@](C)(O)[C@H]3[C@H](O)[C@@H]12 | inactive: 2.81% and inactive: -13.8% | –
24 | Cc1cccc(Cc2cnc[nH]2)c1C | inactive: 5.63% | –
25 | O=C(O)[C@@H]1CCN1 | inactive: -4.93% | –
26 | O=C(NC(O)C(Cl)(Cl)Cl)NC(O)C(Cl)(Cl)Cl (stereo not given) | inactive: -9.26% | –
27 | C[C@](N)(CCP(=O)(O)O)C(=O)O | inactive: -5.22% | –

Row | Compound | activation | Potency
28 | CC(N)C(O)c1ccc(O)c(O)c1 (stereo not given) | inactive: -9.69% and inactive: -19.1% | –
29 | CC(=O)NC1CCSC1=O (stereo not given) | inactive: -8.82% and inactive: -10.4% | –
30 | CCN(CC)CCN1C(=O)CN=C(c2ccccc2F)c2cc(Cl)ccc21 | inactive: -1.68% | –
31 | C[C@]12CCC3C(CC[C@H]4C[C@@H](O)CC[C@]34C)[C@@H]1CCC2=O (stereo not given in full) | inactive: -4.27% | –
32 | CCCCCCCCCC(CC)c1ccc(S(=O)(=O)O)cc1 (stereo not given) | inactive: -61% and inactive: -38.1% | –
33 | Oc1ccccc1-c1ccccc1 | inactive: -7.43% | –
34 | O=CN1CC2CC(C1)c1cccc(=O)n1C2 (stereo not given) | inactive: 0.195% | –
35 | CNC(=O)Oc1ccccc1OC(C)C | inactive: -5.79% | –
36 | CC(=O)O[C@@H]1CN2CCC1CC2 | inactive: -7.77% | –
37 | CN1C2CCC1CC(OC(=O)c1cc(Cl)cc(Cl)c1)C2 (stereo not given) | inactive: 1.87% | –
38 | O=C(O)Cc1cnc[nH]1 | inactive: -8.84% and inactive: 14.8% and inactive: -45.7% | –
39 | CCOC(=O)NC(O)C(Cl)(Cl)Cl (stereo not given) | inactive: -1.6% | –
40 | COc1ccc(C(c2ccc(OC)cc2)C(Cl)(Cl)Cl)cc1 | inactive: -7.92% and inactive: -7.49% | –
41 | O=C(Oc1ccccc1)N1CCC2(CCCN(Cc3ccccc3)C2)CC1 | inactive: -6.92% | –
42 | COC(=O)NC(=S)Nc1ccccc1NC(=S)NC(=O)OC | inactive: -7.7% | –
43 | CCN1C[C@]2(COC)[C@H](O)C[C@H](OC)[C@]34C1C([C@H](OC)[C@H]23)[C@]1(OC(C)=O)C2[C@@H](OC(=O)c3ccccc3)C(O)(C[C@H]24)[C@@H](OC)[C@@H]1O | inactive: 8.74% | –
44 | CCC1(CC)C(=O)NC(=O)N(C)C1=O | inactive: -23.5% | –
45 | COC(C)C(O)(C(=O)OC1=CCN2CC[C@H](O)[C@H]12)C(C)C (stereo not given in full) | inactive: -4.67% | –
46 | CCC1CN2CCC1CC2C(O)c1ccnc2ccccc12 (stereo not given) | inactive: -0.326% | –
47 | CCCCC/C=C\C/C=C\C/C=C\CCCCCCC(=O)NCCO | inactive: -0.939% | –
48 | CCc1cc(OC)c(C[C@@H](C)N)cc1OC | inactive: -1.7% | –
49 | O=C1C=CC(=O)C=C1 | inactive: -26.4% | –
50 | CCC(=O)O[C@](Cc1ccccc1)(c1ccccc1)[C@H](C)CN(C)C | inactive: -28.2% | –
51 | CCOP(=S)(OCC)Oc1ccc2c(C)c(Cl)c(=O)oc2c1 | inactive: -24.7% | –
52 | CCOC(=O)[C@]12Cc3cc4c(cc3[C@H]1N(Cc1ccccc1)C(=O)c1ccccc12)OCO4 | inactive: -14.3% | –
53 | C[C@@H](Cc1cccc(C(F)(F)F)c1)NCCCc1ccccc1 | inactive: -8.13% | –
54 | CC(C)[C@]1(NC(=O)[C@@H]2C=C3c4cccc5[nH]cc(c45)C[C@H]3N(C)C2)O[C@@]2(O)C3CCCN3C(=O)[C@H](Cc3ccccc3)N2C1=O (stereo not given in full) | inactive: 17.9% | –
